Like-named read-outs stand apart in the source and are kept apart here. Values belong to the binder of their own block, whether it stands above or below them.
How the values were obtained:
VEGFR2 = VEGFR2 (Homo sapiens (Human), UniProt P35968 20-764); experiment: SPR (Biacore), 10Fn3 protein or Fc fusion captured by anti-His or anti-human antibody, target in flow, 25 C, 1:1 fit
human recombinant IL-23 = target: T1, human recombinant IL-23 (human, UniProt Q9NPF7 20-189; P29460 23-328); experiment: cell-based or functional assay
T1 sequence (looked up) 1: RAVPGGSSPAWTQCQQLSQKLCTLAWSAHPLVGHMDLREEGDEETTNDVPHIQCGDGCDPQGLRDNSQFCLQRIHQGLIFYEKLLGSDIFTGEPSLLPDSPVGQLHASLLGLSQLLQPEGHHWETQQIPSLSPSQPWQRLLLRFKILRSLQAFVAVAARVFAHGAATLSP
T1 sequence (looked up) 2: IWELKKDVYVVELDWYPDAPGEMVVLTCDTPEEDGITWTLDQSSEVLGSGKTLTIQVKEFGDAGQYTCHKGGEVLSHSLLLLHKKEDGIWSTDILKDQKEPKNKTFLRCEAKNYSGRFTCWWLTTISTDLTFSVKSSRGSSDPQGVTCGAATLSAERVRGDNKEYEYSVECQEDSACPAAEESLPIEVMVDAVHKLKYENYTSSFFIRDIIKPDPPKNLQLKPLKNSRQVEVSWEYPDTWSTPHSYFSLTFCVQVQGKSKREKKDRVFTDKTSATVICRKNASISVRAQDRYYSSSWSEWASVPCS

human PCSK9 [1] = target: T2, human PCSK9 (human, UniProt Q8NBP7); experiment: SPR (Biacore), 10Fn3 protein or Fc fusion captured by anti-His or anti-human antibody, target in flow, 25 C, 1:1 fit
T2 construct: also called hPCSK9; recombinant human PCSK9

human PCSK9 [2] = target: T2, human PCSK9; experiment: cell-based or functional assay
T2 sequence (Q8NBP7 31-692 limits assumed): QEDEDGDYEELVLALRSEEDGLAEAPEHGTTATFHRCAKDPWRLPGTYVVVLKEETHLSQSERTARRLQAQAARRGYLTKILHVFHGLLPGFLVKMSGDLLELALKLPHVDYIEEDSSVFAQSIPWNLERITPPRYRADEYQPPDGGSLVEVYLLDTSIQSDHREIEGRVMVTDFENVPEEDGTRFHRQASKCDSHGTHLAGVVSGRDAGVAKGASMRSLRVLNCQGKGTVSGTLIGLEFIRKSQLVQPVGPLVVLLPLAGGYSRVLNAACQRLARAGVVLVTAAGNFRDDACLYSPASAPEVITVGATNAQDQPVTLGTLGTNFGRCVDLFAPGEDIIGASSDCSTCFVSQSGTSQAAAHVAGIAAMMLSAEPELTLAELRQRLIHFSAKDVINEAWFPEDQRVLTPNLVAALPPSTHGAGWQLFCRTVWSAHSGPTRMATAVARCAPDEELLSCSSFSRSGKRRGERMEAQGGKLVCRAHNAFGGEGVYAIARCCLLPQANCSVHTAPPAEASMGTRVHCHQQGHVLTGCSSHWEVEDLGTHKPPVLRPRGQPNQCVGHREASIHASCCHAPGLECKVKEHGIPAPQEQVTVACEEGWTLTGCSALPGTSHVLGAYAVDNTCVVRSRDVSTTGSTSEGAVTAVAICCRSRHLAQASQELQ

human PCSK9 [3] = target: T2, human PCSK9; experiment: cell-based or functional assay; remark: listed apart in the source

Chain of VEGFR2 (P35968 20-764 limits assumed): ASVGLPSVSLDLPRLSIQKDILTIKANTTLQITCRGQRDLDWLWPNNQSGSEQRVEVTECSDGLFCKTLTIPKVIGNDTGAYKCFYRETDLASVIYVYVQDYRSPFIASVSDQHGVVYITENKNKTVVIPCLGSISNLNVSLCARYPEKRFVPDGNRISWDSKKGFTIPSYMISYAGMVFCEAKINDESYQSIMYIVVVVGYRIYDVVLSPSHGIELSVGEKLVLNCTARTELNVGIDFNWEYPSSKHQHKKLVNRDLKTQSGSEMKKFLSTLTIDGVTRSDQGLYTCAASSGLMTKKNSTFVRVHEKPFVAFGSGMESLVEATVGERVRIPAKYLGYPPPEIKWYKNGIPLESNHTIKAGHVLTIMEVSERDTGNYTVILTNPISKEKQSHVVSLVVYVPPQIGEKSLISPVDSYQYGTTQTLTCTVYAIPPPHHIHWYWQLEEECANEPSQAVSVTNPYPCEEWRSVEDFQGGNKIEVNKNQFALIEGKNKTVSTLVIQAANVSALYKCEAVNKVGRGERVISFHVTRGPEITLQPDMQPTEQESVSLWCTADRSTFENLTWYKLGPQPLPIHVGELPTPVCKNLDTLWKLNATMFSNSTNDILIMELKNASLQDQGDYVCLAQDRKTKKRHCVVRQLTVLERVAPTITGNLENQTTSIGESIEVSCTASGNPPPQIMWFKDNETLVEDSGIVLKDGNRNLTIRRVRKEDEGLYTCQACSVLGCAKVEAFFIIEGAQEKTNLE

B1: C7FL-Fc (Fc fusion)
chain: GSVSDVPRDLEVVAATPTSLLISWRHPHFPTRYYRITYGETGGNSPVQEFTVPLQPPTATISGLKPGVDYTITVYAVTDGRNGRLLSIPISINYRTEI[human IgG1 Fc with changes skipped]
notes: also called anti-VEGFR2 Fc-10Fn3; C7FL-Fc (PRD1309)
Kd (VEGFR2): 15.8 nM
koff (VEGFR2): 0.000169 s⁻¹
kon (VEGFR2): 10700 M⁻¹ s⁻¹

B3: PRD239 (Fc fusion)
chain: [human IgG1 Fc with changes and a few adjoining residues skipped]GGGGSGGVSDVPRDLEVVAATPTSLLISWGHYPLHVRYYRITYGETGGNSPVQEFTVPPRSHTATISGLKPGVDYTITVYAVTYYAQENYKEIPISINYRTEAS
pSTAT3 IC50 (pM), Kit225 cells (human recombinant IL-23): 692 pM

B4: PRD292 (Fc fusion)
chain: [human IgG1 Fc with changes and a few adjoining residues skipped]GGGGSGGVSDVPRDLEVVAATPTSLLISWRPPIHAYGYYRITYGETGGNSPVQEFTVPIVEGTATISGLKPGVDYTITVYAVEYTFKHSGYYHRPISINYRTEI
notes: Fc-X orientation; also called Fc-1784F03
Kd (human PCSK9 [1]): 31.8 nM
koff (human PCSK9 [1]): 0.000149 s⁻¹
kon (human PCSK9 [1]): 4680 M⁻¹ s⁻¹
IC50, HepG2 depletion inhibition (human PCSK9 [2]): 47.8 nM

B6: PRD289 (Fc fusion)
chain: GVSDVPRDLEVVAATPTSLLISWRPPIHAYGYYRITYGETGGNSPVQEFTVPIVEGTATISGLKPGVDYTITVYAVEYTFKHSGYYHRPISINYRTEIEPKSSGS[human IgG1 Fc with changes skipped]
notes: X-Fc orientation; also called 1784F03-Fc
Kd (human PCSK9 [1]): 8.6 nM
koff (human PCSK9 [1]): 0.000103 s⁻¹
kon (human PCSK9 [1]): 12000 M⁻¹ s⁻¹
IC50, HepG2 depletion inhibition (human PCSK9 [2]): 9.15 nM

Continued, values first:

pSTAT3 IC50 (pM), Kit225 cells (human recombinant IL-23): 153 pM
B2: PRD713 (Fc fusion)
chain: GVSDVPRDLEVVAATPTSLLISWGHYPLHVRYYRITYGETGGNSPVQEFTVPPRSHTATISGLKPGVDYTITVYAVTYYAQENYKEIPISINYRTEIEPKSSGS[human IgG1 Fc with changes skipped]

Kd (human PCSK9 [1]): 26.9 nM
koff (human PCSK9 [1]): 0.000172 s⁻¹
kon (human PCSK9 [1]): 6380 M⁻¹ s⁻¹
IC50, HepG2 depletion inhibition (human PCSK9 [3]): 37.8 nM
B5: PRD293 (Fc fusion)
chain: [human IgG1 Fc with changes and a few adjoining residues skipped]GGGGSGGVSDVPRDLEVVAATPTSLLISWSPPANGYGYYRITYGETGGNSPVQEFTVPVGRGTATISGLKPGVDYTITVYAVEYTYKGSGYYHRPISINYRTEI
notes: Fc-X orientation; also called Fc-1813E02

Kd (human PCSK9 [1]): 10.5 nM
koff (human PCSK9 [1]): 0.000204 s⁻¹
kon (human PCSK9 [1]): 19500 M⁻¹ s⁻¹
IC50, HepG2 depletion inhibition (human PCSK9 [3]): 4.2 nM
B7: PRD290 (Fc fusion)
chain: GVSDVPRDLEVVAATPTSLLISWSPPANGYGYYRITYGETGGNSPVQEFTVPVGRGTATISGLKPGVDYTITVYAVEYTYKGSGYYHRPISINYRTEIEPKSSGS[human IgG1 Fc with changes skipped]
notes: X-Fc orientation; also called 1813E02-Fc
